# The other results are listed elsewhere or left out.
# Experiments:
# Assay in all cases: glycan array binding signal (z-score within array); higher = stronger binding
# Conditions in all cases: glycan notation: IUPAC condensed, linker removed
# [1] = target: Fuc(a1-2)Gal(b1-4)[Fuc(a1-3)]GlcNAc(b1-2)Man(a1-3)[Fuc(a1-2)Gal(b1-4)[Fuc(a1-3)]GlcNAc(b1-2)Man(a1-6)]Man(b1-4)GlcNAc(b1-4)[Fuc(a1-6)]GlcNAc
# Method in brief: (§1)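 Glycan array data were curated from 3228 arrays in the Consortium for Functional Glycomics database and kept only where the protein sequence was available. Glycan names were converted to IUPAC-condensed notation, and columns mapping to the same glycan were averaged. The binding signal is a within-array Z-score, averaged across arrays of the same protein sequence at different concentrations or buffers and across linkers. Negative Z-scores can be read as non-binding.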
# [2] = target: Fuc(a1-2)Gal(b1-4)[Fuc(a1-3)]GlcNAc(b1-2)[Fuc(a1-2)Gal(b1-4)[Fuc(a1-3)]GlcNAc(b1-4)]Man(a1-3)[Fuc(a1-2)Gal(b1-4)[Fuc(a1-3)]GlcNAc(b1-2)Man(a1-6)]Man(b1-4)GlcNAc(b1-4)GlcNAc
# Method in brief: as §1
# [3] = target: Fuc(a1-2)Gal(b1-4)[Fuc(a1-3)]GlcNAc(b1-3)Gal(b1-4)[Fuc(a1-3)]GlcNAc
# Method in brief: as §1
# [4] = target: Fuc(a1-2)Gal(b1-4)[Fuc(a1-3)]GlcNAc(b1-3)Gal(b1-4)[Fuc(a1-3)]GlcNAc(b1-3)Gal(b1-4)[Fuc(a1-3)]GlcNAc
# Method in brief: as §1
# [5] = target: Fuc(a1-2)Gal(b1-4)[Fuc(a1-3)]GlcNAc(b1-3)GalNAc
# Method in brief: as §1
# [6] = target: Fuc(a1-2)Gal(b1-4)[Fuc(a1-3)]GlcNAc(b1-3)[Neu5Ac(a2-6)Gal(b1-4)GlcNAc(b1-6)]Gal(b1-4)Glc
# Method in brief: as §1
# [7] = target: Fuc(a1-2)Gal3S(b1-4)GlcNAc
# Method in brief: as §1
# [8] = target: Fuc(a1-2)Gal6S(b1-3)GlcNAc
# Method in brief: as §1
# [9] = target: Fuc(a1-2)Gal6S(b1-3)GlcNAc6S
# Method in brief: as §1
# Fuc(a1-2)Gal6S(b1-4)Glc = target: Fuc(a1-2)Gal6S(b1-4)Glc
# Method in brief: as §1
# [10] = target: Fuc(a1-2)Gal6S(b1-4)Glc6S
# Method in brief: as §1
# Fuc(a1-2)[Gal(a1-3)]Gal = target: Fuc(a1-2)[Gal(a1-3)]Gal
# Method in brief: as §1
# [11] = target: Fuc(a1-2)[Gal(a1-3)]Gal(b1-3)GalNAc
# Method in brief: as §1
# [12] = target: Fuc(a1-2)[Gal(a1-3)]Gal(b1-3)GalNAc(b1-3)Gal(a1-4)Gal(b1-4)Glc
# Method in brief: as §1
# [13] = target: Fuc(a1-2)[Gal(a1-3)]Gal(b1-3)GlcNAc
# Method in brief: as §1
# [14] = target: Fuc(a1-2)[Gal(a1-3)]Gal(b1-3)GlcNAc(b1-2)Man(a1-3)[Fuc(a1-2)[Gal(a1-3)]Gal(b1-3)GlcNAc(b1-2)Man(a1-6)]Man(b1-4)GlcNAc(b1-4)GlcNAc
# Method in brief: as §1
# [15] = target: Fuc(a1-2)[Gal(a1-3)]Gal(b1-3)GlcNAc(b1-2)Man(a1-3)[Fuc(a1-2)[Gal(a1-3)]Gal(b1-3)GlcNAc(b1-2)Man(a1-6)]Man(b1-4)GlcNAc(b1-4)[Fuc(a1-6)]GlcNAc
# Method in brief: as §1
# [16] = target: Fuc(a1-2)[Gal(a1-3)]Gal(b1-3)GlcNAc(b1-3)GalNAc
# Method in brief: as §1
# [17] = target: Fuc(a1-2)[Gal(a1-3)]Gal(b1-3)GlcNAc(b1-6)GalNAc
# Method in brief: as §1
# [18] = target: Fuc(a1-2)[Gal(a1-3)]Gal(b1-4)Glc
# Method in brief: as §1
# [19] = target: Fuc(a1-2)[Gal(a1-3)]Gal(b1-4)GlcNAc
# Method in brief: as §1
# [20] = target: Fuc(a1-2)[Gal(a1-3)]Gal(b1-4)GlcNAc(b1-2)Man
# Method in brief: as §1
# [21] = target: Fuc(a1-2)[Gal(a1-3)]Gal(b1-4)GlcNAc(b1-2)Man(a1-3)[Fuc(a1-2)[Gal(a1-3)]Gal(b1-4)GlcNAc(b1-2)Man(a1-6)]Man(b1-4)GlcNAc(b1-4)GlcNAc
# Method in brief: as §1
# [22] = target: Fuc(a1-2)[Gal(a1-3)]Gal(b1-4)GlcNAc(b1-2)Man(a1-3)[Fuc(a1-2)[Gal(a1-3)]Gal(b1-4)GlcNAc(b1-2)Man(a1-6)]Man(b1-4)GlcNAc(b1-4)[Fuc(a1-6)]GlcNAc
# Method in brief: as §1
# [23] = target: Fuc(a1-2)[Gal(a1-3)]Gal(b1-4)GlcNAc(b1-3)GalNAc
# Method in brief: as §1
# [24] = target: Fuc(a1-2)[Gal(a1-3)]Gal(b1-4)GlcNAc(b1-3)[Fuc(a1-2)[Gal(a1-3)]Gal(b1-4)GlcNAc(b1-6)]GalNAc
# Method in brief: as §1
# [25] = target: Fuc(a1-2)[Gal(a1-3)]Gal(b1-4)GlcNAc(b1-6)GalNAc
# Method in brief: as §1
# [26] = target: Fuc(a1-2)[Gal(a1-3)]Gal(b1-4)[Fuc(a1-3)]Glc
# Method in brief: as §1
# [27] = target: Fuc(a1-2)[Gal(a1-3)]Gal(b1-4)[Fuc(a1-3)]GlcNAc
# Method in brief: as §1
# [28] = target: Fuc(a1-2)[Gal(a1-3)]Gal(b1-4)[Fuc(a1-3)]GlcNAc(b1-3)GalNAc
# Method in brief: as §1
# [29] = target: Fuc(a1-2)[Gal(a1-4)]Gal(b1-4)GlcNAc
# Method in brief: as §1
# [30] = target: Fuc(a1-2)[GalNAc(a1-3)]Gal
# Method in brief: as §1
# [31] = target: Fuc(a1-2)[GalNAc(a1-3)]Gal(b1-3)GalNAc(a1-3)[Fuc(a1-2)]Gal(b1-4)GlcNAc
# Method in brief: as §1
# [32] = target: Fuc(a1-2)[GalNAc(a1-3)]Gal(b1-3)GalNAc(b1-3)Gal(a1-4)Gal(b1-4)Glc
# Method in brief: as §1
# [33] = target: Fuc(a1-2)[GalNAc(a1-3)]Gal(b1-3)GlcNAc
# Method in brief: as §1
# [34] = target: Fuc(a1-2)[GalNAc(a1-3)]Gal(b1-3)GlcNAc(b1-2)Man(a1-3)[Fuc(a1-2)[GalNAc(a1-3)]Gal(b1-3)GlcNAc(b1-2)Man(a1-6)]Man(b1-4)GlcNAc(b1-4)GlcNAc
# Method in brief: as §1
# [35] = target: Fuc(a1-2)[GalNAc(a1-3)]Gal(b1-3)GlcNAc(b1-2)Man(a1-3)[Fuc(a1-2)[GalNAc(a1-3)]Gal(b1-3)GlcNAc(b1-2)Man(a1-6)]Man(b1-4)GlcNAc(b1-4)[Fuc(a1-6)]GlcNAc
# Method in brief: as §1
# [36] = target: Fuc(a1-2)[GalNAc(a1-3)]Gal(b1-3)GlcNAc(b1-3)GalNAc
# Method in brief: as §1
binder,measurement,setting,value
PX14343A-bvu-539-29-539 (Bacteroides vulgatus) (protein) DSLTESSSNTFWQTPDDALMALASCYDALQSNQLYNSDQYSLGPLYMDCISDNGGHFNWSGWMEGYDMAMGIHTPSSSIIGSYWKDCYEVISRCNVLIANIDRVDMDASQKAIYQAEAKTIRALMYINLTMTYQDVPFLTAPLTIDEAECEKTDRAAIVAHVMTDLQDAAEVLPQNASSRGHITKGAALSLLGRVALYNEKWDDAIAAYKQVQGLGYSLDPSYAKLFTQSGETSPEIIFAVRYEGPGMSEGAAFNAHWNTPLEAMNGTIDLADAYYCKDGKPTTDTKIAELNGGGGLDVSKPNPAHFENRDPRLYSTLFVPGMLWNGKGGIDTSASNPYANVYGGAAASLSTVYVYKYFDPTDTSNSWDNGQDFYVVRYAEVLLSLAEAMVQKGGYVYSDVTALVNEVRQRADVNMPTVEEVEGTSLSKDELLEVIKHERRVELAFEGLRLFDLYRWKELDKAVANIENERTMYGLAYEARKFNGERDYVWPLPTAELDTNKKLVQHDLWK,glycan array binding signal (z-score),[1],1.44
same,glycan array binding signal (z-score),[2],-0.059
same,glycan array binding signal (z-score),[3],-0.083
same,glycan array binding signal (z-score),[4],-0.123
same,glycan array binding signal (z-score),[5],-0.384
same,glycan array binding signal (z-score),[6],-0.373
same,glycan array binding signal (z-score),[7],-0.406
same,glycan array binding signal (z-score),[8],-0.303
same,glycan array binding signal (z-score),[9],0.019
same,glycan array binding signal (z-score),Fuc(a1-2)Gal6S(b1-4)Glc,-0.085
same,glycan array binding signal (z-score),[10],-0.262
same,glycan array binding signal (z-score),Fuc(a1-2)[Gal(a1-3)]Gal,0.03
same,glycan array binding signal (z-score),[11],0.142
same,glycan array binding signal (z-score),[12],-0.301
same,glycan array binding signal (z-score),[13],-0.2
same,glycan array binding signal (z-score),[14],2.54
same,glycan array binding signal (z-score),[15],-0.279
same,glycan array binding signal (z-score),[16],-0.271
same,glycan array binding signal (z-score),[17],-0.27
same,glycan array binding signal (z-score),[18],-0.467
same,glycan array binding signal (z-score),[19],-0.517
same,glycan array binding signal (z-score),[20],-0.401
same,glycan array binding signal (z-score),[21],0.05
same,glycan array binding signal (z-score),[22],0.314
same,glycan array binding signal (z-score),[23],0.003
same,glycan array binding signal (z-score),[24],7.49
same,glycan array binding signal (z-score),[25],-0.17
same,glycan array binding signal (z-score),[26],-0.243
same,glycan array binding signal (z-score),[27],0.751
same,glycan array binding signal (z-score),[28],0.281
same,glycan array binding signal (z-score),[29],0.386
same,glycan array binding signal (z-score),[30],-0.253
same,glycan array binding signal (z-score),[31],0.132
same,glycan array binding signal (z-score),[32],-0.256
same,glycan array binding signal (z-score),[33],-0.267
same,glycan array binding signal (z-score),[34],-0.46
same,glycan array binding signal (z-score),[35],-0.3
same,glycan array binding signal (z-score),[36],-0.347

# From the supplement of paper PMC8728848
